According to PubChem BioAssay AID493208 (National Center for Advancing Translational Sciences (NCATS), 2011):
Out of some 44,000 compounds screened, about 340 (0.77%) were called active. Another 5% or so got no clear call; they are omitted. Calls follow the shape of the dose curve; as a rule, active = well fitted inhibition curve with a large enough effect; inconclusive = small, poorly fitted or top-dose-only effect; inactive = flat fitted curve, though single readings scatter. Some of the results follow.

experiment: Acumen qHTS Assay for Inhibitors of the mTORC1 Signaling Pathway in MEF (Tsc2-/-, p53-/-) Cells: Sytravon; settings: phospho-rpS6 immunofluorescence/PI, 24 h; series mostly up to 38.3 µM; activity change, negative = inhibition: at the top concentration;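 also: plate controls were DMSO for no effect and rapamycin for full effect; nearly all actives have a fitted effect of over 50% in size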
In short: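 Tsc2-/-, p53-/- MEFs (empty-vector stable line) in DMEM + 10% FBS were treated with compounds 24 h at 37 degree Celsius, fixed, and immunostained for phospho-rpS6 (Alexa-488) with propidium iodide counterstain. Laser-scanning cytometry gave % positive cells, normalized against 7.5 nM rapamycin and DMSO.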

Activity change, negative = inhibition, inactive:
COc1ccccc1N1CCN(C(=O)Cn2c(=O)nc(-c3ccccc3)c3cc(Cl)ccc32)CC1 1.1%
Cc1ccc2c(=O)cc(CSc3nnc(-c4ccccc4)n3C)[nH]c2c1C -0.414%
Cc1cc(C)c(NC(=O)c2cc3c(=O)n4ccccc4nc3n2C)c(C)c1 0.4%
Cc1cc(-c2nc3ncccc3o2)ccc1NC(=O)c1ccc(Br)cc1 0.911%
CCOC(=O)Cn1c(=O)n(C2CCCCC2)c2nc(-c3ccc(Cl)cc3)nc(C(N)=O)c21 1.33%
Cc1c(Cl)cccc1NC(=O)c1ccc(C(=O)Nc2cccc(Cl)c2C)cc1 -3.48%
CC1CCN(C(=O)c2cnn(-c3cccc(Cl)c3)c2C2CCN(C(=O)OC(C)(C)C)CC2)CC1 5.51%
CC(=O)N1CCc2c(sc3c2c(=O)n(-c2ccccc2C)c(=O)n3Cc2cccc(F)c2)C1 -3.98%
COc1cc(OC)cc(-n2nnc(-c3nc(-c4ccccc4Cl)no3)c2N)c1 -7.99%
CSc1ccc(CNC(=O)c2ccccc2NC(=O)c2nsc3ccccc23)cc1 -9.05%
CC(=O)N1c2ccccc2C(=O)C1N1CCN(c2ccccc2)CC1 (configuration not stated) 0%
COc1ccc(NC(=O)c2c(-c3ccccc3)c(-c3ccccc3)nn(C)c2=O)c(OC)c1 0.775%
COc1ccc(OCC(=O)NCC(c2ccc(Cl)cc2)N2CCCCC2)cc1 (configuration not stated) -15.9%
COc1ccc(CN2COc3ccc4c(oc(=O)c5ccccc54)c3C2)cc1OC 2.42%
Cc1ccccc1Nc1c(-c2ccc(N3CCOCC3)cc2)nc2ncccn12 4.28%
O=C(Nc1ccccc1-c1nc2ccccc2s1)c1cc(Cl)cc(Cl)c1 -1.65%
Cc1c(CNC(C)CCc2ccccc2)c(C(=O)O)c(C)n1Cc1ccc(F)cc1Cl (configuration not stated) -7.71%
O=C(c1ccccc1Cl)n1nc(-c2cccnc2)nc1NCc1ccc(F)cc1 -6.4%
CCCCOc1ccc(C(=O)N(Cc2ccc(C(C)C)cc2)C2CCS(=O)(=O)C2)cc1 (configuration not stated) -0.31%
COC(=O)c1scc(-c2ccccc2)c1S(=O)(=O)Nc1cccc(C)c1C -4.38%
COc1ccc(N2CCN(C3=NS(=O)(=O)C(c4cccc(Br)c4)=C3C)CC2)cc1 -0.168%
Cc1cc(C)c(NC(=O)CCc2c(C)nc3c(c(C)nn3C(C)(C)C)c2C)c(C)c1 -9.53%
CCOC(=O)c1ccc(NC(=O)CCc2c(C)nc3nc[nH]n3c2=O)cc1 0.608%
COC(=O)c1cc2sc(C)cc2n1Cc1ccc(Br)cc1F -0.466%
COc1ccc(C2=NN(CC(=O)NCCCN(C)c3ccccc3)C(=O)CC2)cc1 -9.23%
COCCNC(=O)C(=O)NCC(c1cccnc1)N1CCN(c2ccccc2F)CC1 (configuration not stated) -3.78%
Cc1ccc2oc3c(c(=O)c2c1)C(c1ccc(F)cc1)N(c1nc(C)c(C)s1)C3=O (configuration not stated) -16.1%
COc1ccc(C2CC(=O)Nc3c2c(=O)[nH]c2nc4ccccc4n32)cc1OC (configuration not stated) 4.49%
COc1ccc(NC(=O)c2nc3nc(C)cc(C(F)F)n3n2)c(C)c1 -6.84%
CCOC(=O)c1ccc(NC(=O)CC2C(=O)N(c3ccc(F)cc3)C(=O)N2Cc2ccc3c(c2)OCO3)cc1 (configuration not stated) -18.3%
Cc1ccc(C)c(NS(=O)(=O)c2cc3c(cc2Cl)NC(=O)CO3)c1 -2.13%
CCOC(=O)c1cccc(NC(=O)C2CCN(S(=O)(=O)c3cn(C)cn3)CC2)c1 0%
CC(C)(C)OC(=O)N1CCC(c2c(C(=O)NCCN3CCC(Cc4ccccc4)CC3)cnn2-c2ccccc2)CC1 0%
CCc1ccc(NC(=O)N2CC(C)Oc3ccc(C)cc32)cc1 (configuration not stated) 0%
COCCCNc1ncnc2c1cnn2-c1ccc(F)cc1 -21.2%
CCCn1c(NCc2ccccc2C)nc2ccccc21 -0.938%
COc1ccc(-n2cc(-c3ccccc3)nc2SCC(=O)Nc2ccccc2)cc1Cl 1.28%
CCc1ccc(S(=O)(=O)c2nnn3c2nc(N2CCCC2)c2sccc23)cc1 1.07%
Cc1nn(-c2ccc(N3CCCCC3)nn2)c(C)c1CCC(=O)NCc1ccccc1F -18.7%
CN1C(=O)Cc2cc(S(=O)(=O)CCC(=O)N3CCN(c4ccccc4F)CC3)ccc21 -0.48%
COc1ccc(NC(=O)COCc2cc(-c3cccs3)on2)cc1 -0.781%
Cc1ccccc1C1C=C(c2ccc(Cl)cc2)Nc2nnnn21 (configuration not stated) -1%
CCOC(=O)c1ccc(NC(=O)Cn2cnc(S(=O)(=O)N3CCCC3)c2)cc1 0%
COc1ccc(-n2nc3c(N4CCCC(C(=O)NCCc5ccc(C)cc5)C4)nnc(C)c3c2C)cc1 (configuration not stated) -12%
COc1ccc(-c2cc(C(F)(F)F)n3nc(C(=O)Nc4cccc(Cl)c4C)cc3n2)cc1 11.5%
CCOc1ccc(OCC)c(NC(=O)CCc2c(C)nc3c(c2C)c(=O)n(C)c(=O)n3C)c1 -10.6%
O=C(c1ccc2c(c1)N(Cc1ccccc1)C(=O)c1ccccc1S2(=O)=O)N1CCN(c2ccccn2)CC1 2.37%
CCSc1ncc(Cl)c(C(=O)Nc2c(C(=O)Nc3ccc(Cl)cc3)oc3ccccc23)n1 3.3%
CCOc1ccccc1CNC(=O)c1cc(-c2ccc(OC)cc2)nc2ccc(C(C)C)cc12 -1.4%
COc1cc(C2c3c(oc4ccccc4c3=O)C(=O)N2c2nnc(C(C)C)s2)cc(OC)c1OC (configuration not stated) -11.7%
COc1ccc(CNC(=O)c2ccc3c(c2)nc2n3CCCCC2)c(OC)c1 18.8%
CCOC(=O)c1cccc(NS(=O)(=O)c2cn(C)c(C)n2)c1 -8.72%
COc1ccc(/C=C/c2noc(-c3ccccc3O)n2)cc1OC 0.607%
Cc1ccc(Cn2ccn(Cc3ccccc3C)c(=O)c2=O)cc1 -14.9%
COC(=O)c1ccccc1NC(=O)Cn1c(=O)n(-c2ccc(Cl)cc2)c(=O)c2c(C)c(C)sc21 0.637%
COc1cccc(-c2cc(C(=O)Nc3ccc(C)cc3)[nH]n2)c1 3.23%
Cc1cc(C)n(-c2nc3ccccc3nc2Nc2cc(C(=O)O)ccc2C)n1 -1.17%
Cc1cc(C)cc(-n2nnc(-c3nc(-c4ccccc4F)no3)c2C)c1 -0.896%
Cc1ccc(CN2CCN(CC(=O)NCc3ccccc3Cl)C2=O)cc1 -1.35%
Cc1ccc(NC(=O)C(=O)NCC(c2cccnc2)N2CCc3ccccc32)cc1Cl (configuration not stated) -9.61%
COc1ccc(S(=O)(=O)N(CC(=O)NCc2ccc(C)cc2)c2ccc(Cl)cc2)cc1 -3.31%
CCOc1ccccc1NC(=O)CN1C(=O)C2(SCC(=O)N2c2cccc(F)c2)c2ccccc21 (configuration not stated) 2.8%
